From PubChem BioAssay AID1508623 (National Center for Advancing Translational Sciences (NCATS), 2021)
The whole screen tested about 48,000 compounds, of which about 450 (0.94%) were called active. Inconclusive results (about 19%) are left out. Calls follow the shape of the dose curve; as a rule, active = well fitted inhibition curve with a large enough effect; inconclusive = small, poorly fitted or top-dose-only effect; inactive = no such curve, though single readings can be large or run the other way. Some of the results follow.

assay: Primary qHTS for Identification of Small Molecule Inhibitors of Huntingtin Promoter Activity; settings: HEK293 HTT promoter firefly luciferase reporter (activity 0% = vehicle and -100% = no light), 24 h; series mostly up to 57.5 µM; activity change, negative = inhibition: at the top concentration; also: nearly all actives have a fitted effect of over 50% in size
In short: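 Luminescence was read after Dual-Glo reagent and a 10 min room-temperature incubation. Values were normalized to vehicle (0% activity) and zero RLU (-100% activity). Reporter HEK293 cells had been exposed to compounds (up to 57.5 uM final) for 24 h.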
Potency is read from the fitted curve at half-maximal effect.

Activity change, negative = inhibition, inactive:
COc1nc(N)nc2c1ncn2[C@@H]1O[C@H](CO)[C@@H](O)[C@@H]1O
CCCCc1nn2c(=O)cc(COC(=O)C(C)Oc3ccccc3)nc2s1 (stereo not given) -2.13%
CC(C)CNC(=O)c1c(-c2ccccc2)c(-c2ccccc2)nn(C)c1=O -15%
COc1ccc2c(c1)CC(NC(=O)Nc1ccc(NC(C)=O)cc1)CO2 (stereo not given) 0.824%
COc1ccccc1CNC(=O)C1CCN(Cc2cc3ccccc3n2Cc2cccc(C)c2)CC1 -18.6%
Cc1ccccc1Cn1c(=O)n(CCCCC(=O)NCc2ccccc2Cl)c(=O)c2ccccc21 -8.76%
O=C(CSc1nnc(-c2ccncc2)n1-c1ccccc1)Nc1ccc(Br)cc1 16.3%
CCOc1ccc(NC(=O)C2CCN(S(=O)(=O)c3ccc4c(c3)oc(=O)n4C)CC2)cc1 -4.39%
CCOc1ccc2nc(N3CCC(C(=O)Nc4ccc(Br)cc4F)CC3)sc2c1 7.41%
CCCNC(=O)c1c(NC(=O)c2ccc(C)cc2)sc2c1CCCCC2 -1.01%
CC(=O)N1CCOc2cc(S(=O)(=O)Nc3cc(C(F)(F)F)ccc3Cl)c(C)cc21 7.97%
CCSc1ncc(Cl)c(C(=O)N(Cc2ccc(C(C)(C)C)cc2)C2CCS(=O)(=O)C2)n1 (stereo not given) -27.1%
COc1ccc2c(c1)c1c(c(=O)n(Cc3ccccc3)c(=O)n1Cc1ccccc1)n2C -2.47%
CCOC(=O)c1c(C)oc2nc(C)nc(NCCCN3CCN(c4cc(Cl)ccc4C)CC3)c12 5.62%
O=C(CCCN1CCC(O)(c2cccc(C(F)(F)F)c2)CC1)c1ccc(F)cc1 -10.7%
Cc1ccc(-c2noc(-c3nnn(CC(=O)Nc4cccc(C(F)(F)F)c4)c3N)n2)cc1 18.7%
Cc1ccc(C(=O)NCC(=O)OCc2cc(=O)n3nc(C4CC4)sc3n2)cc1 -10.3%
COc1ccc(S(=O)(=O)Cc2ccc(C(=O)N3CCN(c4cc(C)ccc4C)CC3)o2)cc1 -16.6%
O=C(O)c1cccnc1SCc1cccc(Cl)c1 0.16%
O=C(Nc1cccc(-c2nc3ccccc3[nH]2)c1)c1c(F)cccc1F 17.9%
Cc1cccc(OCCSc2nc3ccccc3n2CC(=O)N2CCOCC2)c1C -31.3%
CCOc1ccc(S(=O)(=O)Nc2ccc(OC)c(Cl)c2)c2cccnc12 -23.9%
Cc1ccc(NC(=O)C2CCCN(S(=O)(=O)c3c(C)nn(C)c3C)C2)c(C)c1 (stereo not given) -18.5%
CCOc1ccc(C2C(C(N)=O)=C(C)Nc3nc(-c4cccc(Cl)c4)nn32)cc1OC (stereo not given) -29.3%
CC[C@@H]([C@H](C)O)n1ncn(-c2ccc(N3CCN(c4ccc(OCC5CO[C@@](Cn6cncn6)(c6ccc(F)cc6F)C5)cc4)CC3)cc2)c1=O (stereo not given in full) -21%
CCN1C(=O)c2ccccc2S(=O)c2ccc(C(=O)NCc3ccccc3OC)cc21 (stereo not given) -17.6%
O=C(O)c1c2c(nc3ccc(S(=O)(=O)N4CCC(C(=O)NCc5ccc(Cl)cc5)CC4)cc13)CCCC2 -2.47%
CCCCCOc1ccc(NC(=O)Cn2c(-c3cncs3)nc3ccccc32)cc1 -28.6%
COc1ccc(S(=O)(=O)NCC(c2ccco2)N2CCN(c3ccccc3F)CC2)cc1C (stereo not given) -29.8%
COc1cc(/C=C/c2nc3cc(Cl)ccc3c(=O)n2-c2ccc(C)cc2C)cc(OC)c1OC -24.4%
CSc1ccc(NC(=O)Cn2nnnc2-c2ccccc2F)cc1 6.66%
CCOC(=O)c1c(C)oc2nc(C)nc(N3CCN(c4cccc(C)c4C)CC3)c12 9.01%
CCc1cccc(NC(=O)c2cccc3c2C(=O)N(C2CCCCC2)C3)c1 4.51%
O=C(NCC(c1cccnc1)N1CCc2ccccc21)C(=O)Nc1ccccc1F (stereo not given) -21.2%
CC(NC(=O)c1cc(-c2ccc(Cl)cc2)on1)c1ccccc1 (stereo not given) 2.36%
CCOC(=O)c1nnn(CC(=O)NC(=O)Nc2ccc(F)cc2)c1C(=O)OCC -15.9%
CC1Cn2cc(C(=O)Nc3ccccc3C(F)(F)F)c(=O)c3c(Cl)ccc(c32)O1 (stereo not given) -12%
Cc1oc2ncn(CC(C)C)c(=O)c2c1C(=O)N(Cc1ccccc1)C(C)C -22.1%
CN(C)c1ccccc1CN1CCCN(Cc2ccccc2N(C)C)C1c1ccncc1 -4.32%
O=c1c2ccccc2nc2n1CCc1c-2[nH]c2ccccc12 19.6%
COc1cc(OC)c(NC(=O)c2cn(C)c(=O)c3cc(OC)c(OC)cc23)cc1Cl -4.43%
O=C(/C=C/c1ccccc1)N1CCN(Cc2cc(=O)n3nc(-c4ccccc4Cl)sc3n2)CC1 -23.6%
c1ccc(CNCCNCc2ccccc2)cc1 4.87%
O=C(CN1C(=O)C2(SCC(=O)N2c2ccc(Cl)cc2)c2ccccc21)NCCc1ccccc1 (stereo not given) -20.8%
COc1ccc(Cl)cc1NS(=O)(=O)c1c(C)[nH]c(=O)[nH]c1=O -0.15%
COc1ccc(Cl)cc1NC(=O)c1c(NCc2cccs2)sc2c1CCCC2 -8.98%
Cc1cccc(-n2ncc(C(=O)Nc3ccc4c(c3)OCO4)c2C2CCN(C(=O)OC(C)(C)C)CC2)c1 14%
CN(C)c1ccc(NC(=O)CSC2=Nc3ccccc3C3=NC(CC(=O)NCc4ccc5c(c4)OCO5)C(=O)N23)cc1 (stereo not given) 2.41%
Cc1ccc(S(=O)(=O)Nc2c(C)nc3nc(C)[nH]n3c2=O)c(C)c1 -12.1%
Oc1ccc(NCc2ccccc2OCc2ccccc2Cl)cc1 -18.5%
CC(C)C(=O)c1cc2c(cc1NC(=O)c1ccccc1F)OCCO2 -14.7%
Cc1ccc(NC(=O)Cn2cnc3c(oc4ccccc43)c2=O)cc1 20.1%
Cc1ccc(COc2cccc3cc(-c4noc(-c5ccc(C)cc5)n4)c(=O)oc23)cc1 -0.98%
Cc1ccc(C(=O)c2oc3ccccc3c2NC(=O)COc2ccc(C(C)(C)C)cc2)cc1 9.33%
COC(=O)c1ccc(NC(=O)CSc2nc3c(c(=O)n(C)c(=O)n3C)n2Cc2ccccc2)cc1 -5.3%
COc1ccc(C(=O)NCc2nnc(SCC(=O)Nc3ccc(F)cc3)n2-c2ccccc2)cc1 -21.5%
CC(=O)N1CCc2cc(S(=O)(=O)CCC(=O)N3CCN(c4ccccc4F)CC3)ccc21 -21.8%
Cc1cc(Nc2ccc(Cl)cc2)n2cnnc2n1 -6.32%
COc1ccccc1Cc1nc2ccccc2nc1SCC(=O)N1CCCc2ccccc21 -3.18%

Potency, active:
COc1ccc(NS(=O)(=O)c2ccc3c(c2)CCCN3C(=O)C2CCC2)cc1OC 1780 nM
